Laboratory results from PubChem BioAssay AID504706 (National Center for Advancing Translational Sciences (NCATS), 2011).
In all, about 320,000 compounds went through this assay and about 200 (0.062%) were called active. Inconclusive means that the source gave no clear call. Such entries were picked first, then a sample of the others. Calls come from the whole dose curve; as a rule, active = well fitted activation curve with a large enough effect; inconclusive = small, poorly fitted or top-dose-only effect; inactive = no such curve, though single readings can be large or run the other way. No potency is given beside an inconclusive call; the fits are too rough.

Test: qHTS assay for re-activators of p53 using a Luc reporter; note: nearly all actives have a fitted effect of over 45% in size; for activity change, positive = activation: % of control where 0% means no effect
Details: H1299 p53-A138V BP100-luciferase reporter, luminescence, 24 h; series mostly up to 92.2 µM; activity change, positive = activation: at the top concentration
Method in brief: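 H1299 (p53-null), stable ts p53-A138V + BP100-Luc; 1000 cells/well, Opti-MEM/10% FBS; cpd 4 pt, 1:5; 24 h, 37 deg C, 5% CO2; detection reagent 10 min RT; luminescence.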
Potency is the fitted concentration of half-maximal effect; tags give direction and shape of the fitted curve.

With `O=C(N/N=C/c1c(O)ccc2ccccc12)c1ccc[n+](CCO)c1` as the compound, how does the “activity change, positive = activation” value read?
Its value is inactive: -3.87%.

For `Cc1ccc(Cn2ccc(NC(=O)c3cc(C(C)C)on3)n2)cc1`, which Potency is on record?
The Potency was inconclusive [activator, single point].

Which “activity change, positive = activation” value does the source give for `O=c1[nH]ncc(N/N=C/c2ccccc2)c1Cl` here?
The value was inactive: 1.93%.

For `COc1cccc(C#Cc2c(C=O)n(C)c3ccccc23)c1`, which “activity change, positive = activation” value is on record?
Its value is inactive: 16.5%.

Which “activity change, positive = activation” value does the source give for `Cc1cc(NC(=O)c2cc3cccc([N+](=O)[O-])c3[nH]2)ccc1F` here?
Its value is inactive: 25.5%.

For `CCOc1ccc(N=Cc2c(O)c3ccccc3oc2=O)cc1`, which Potency is on record?
Its Potency is inconclusive [activator, partial curve, poor fit].

With `COC(=O)c1cc(C(=O)N2CCN(C(=O)c3ccco3)CC2)cc([N+](=O)[O-])c1` as the compound, how does the Potency read?
The Potency was inconclusive [activator, single point].

With `COC(=O)c1c(NC(=O)CC2Nc3cc(C)c(C)cc3NC2=O)sc(C)c1C` (centres undefined) as the compound, how does the “activity change, positive = activation” value read?
Its value is inactive: 5.28%.

For `COc1ccc(N2C(=O)CC(Sc3n[nH]c(-c4cccc(C)c4)n3)C2=O)cc1` (centres undefined), which “activity change, positive = activation” value is on record?
The value was inactive: 14.9%.

With `CSc1ccc(-c2nc(CSCC(=O)N3CCOCC3)c(C)o2)cc1` as the compound, how does the Potency read?
Its Potency is inconclusive [activator, partial curve, poor fit].

For `c1ccc(Nc2nc(-c3ccncc3)cs2)cc1`, which Potency is on record?
Its Potency is inconclusive [activator, partial curve, poor fit].

Which Potency does the source give for `Cc1nc2ccc(-c3nc4ccccc4o3)cc2[nH]1` here?
The Potency was inconclusive [activator, full curve, poor fit].

With `CN(C)S(=O)(=O)Oc1ccc(C(=O)Nc2ccc([N+](=O)[O-])cc2)cc1` as the compound, how does the “activity change, positive = activation” value read?
The value was inactive: 2%.

Which Potency does the source give for `O=C(c1cc(COc2ccc(F)cc2Cl)on1)N1CCSCC1` here?
The Potency was inconclusive [activator, partial curve, poor fit].

Which Potency does the source give for `S=c1[nH]ncc2ccccc12` here?
The Potency was inconclusive [activator, single point].

With `CCCCC(=O)Nc1nc2ccc3nc(C)sc3c2s1` as the compound, how does the Potency read?
The Potency was inconclusive [activator, partial curve, poor fit].

For `COc1cccc(C2=CC(c3cccs3)n3nnnc3N2)c1` (centres undefined), which Potency is on record?
The Potency was inconclusive [activator, partial curve, poor fit].

Which “activity change, positive = activation” value does the source give for `COc1ccc2oc(=Nc3ccc(C(=O)O)cc3)c(C(=O)NCc3ccco3)cc2c1` here?
The value was inactive: 4.43%.

For `COc1ccc(C2=CC(c3ccc(F)cc3)n3nnnc3N2)cc1` (centres undefined), which Potency is on record?
Its Potency is inconclusive [activator, partial curve, poor fit].

Which Potency does the source give for `O=C1c2ccccc2C(=O)N1CCOc1ccc(F)cc1` here?
The Potency was inconclusive [activator, partial curve, poor fit].

With `COC(=O)c1[nH]c2ccc(Cl)cc2c1NC(=O)Oc1ccccc1` as the compound, how does the Potency read?
The Potency was inconclusive [activator, partial curve, poor fit].

Which Potency does the source give for `Cn1c(NC(=O)c2cccc(Cn3cc(Cl)cn3)c2)nc2ccccc21` here?
The Potency was inconclusive [activator, partial curve, poor fit].

For `Cc1cc(N)n2ncc(-c3cccc(Br)c3)c2n1`, which Potency is on record?
Its Potency is inconclusive [activator, partial curve, poor fit].

With `Cc1ccc2nc(SCC(=O)Nc3cccc(F)c3)nc(=O)n2c1` as the compound, how does the “activity change, positive = activation” value read?
Its value is inactive: 2.85%.

With `N#Cc1cnc(Oc2ccc(Cl)cc2)nc1N` as the compound, how does the Potency read?
The Potency was inconclusive [activator, partial curve, poor fit].

For `COc1cc(CC(=O)N2CCc3ccccc32)cc(OC)c1OC`, which Potency is on record?
The Potency was inconclusive [activator, single point].

For `COc1ccc(-c2csc(NCc3ccco3)n2)cc1`, which Potency is on record?
The Potency was inconclusive [activator, partial curve, poor fit].

With `O=C(CCc1ccccc1)N/N=C/c1cc(Br)ccc1O` as the compound, how does the Potency read?
The Potency was inconclusive [activator, single point].

Which “activity change, positive = activation” value does the source give for `CCOc1ccc(-c2c(C(=O)N/N=C/c3sccc3C)nnn2-c2nonc2N)cc1` here?
Its value is inactive: -0.63%.

Which Potency does the source give for `COCC(C)NC(=O)c1cc(-c2cccc(OC)c2)on1` (centres undefined) here?
Its Potency is inconclusive [activator, partial curve, poor fit].

For `COc1ccc(NC(=O)c2ccc3c(c2)OCCO3)cc1OC`, which Potency is on record?
Its Potency is inconclusive [activator, full curve, poor fit].

For `Cc1cc(NC(=O)CSCC(=O)NC(C)c2ccccc2)no1` (centres undefined), which “activity change, positive = activation” value is on record?
The value was inactive: -1.81%.

For `COc1cc(S(=O)(=O)n2ccc(C)n2)c(OC)cc1Cl`, which “activity change, positive = activation” value is on record?
Its value is inactive: 1.32%.

With `O=C(NCc1cc2ccccc2[nH]1)c1ccccc1F` as the compound, how does the Potency read?
The Potency was inconclusive [activator, partial curve, poor fit].

Which Potency does the source give for `O=C(CSc1nnc2ccccn12)Nc1ccc2c(c1)OCCO2` here?
The Potency was inconclusive [activator, partial curve, poor fit].

With `O=S(=O)(Cc1nc2ccccc2s1)c1ccccc1` as the compound, how does the Potency read?
The Potency was inconclusive [activator, partial curve, poor fit].

For `Cc1csc2nc(CNC(=O)CCC(=O)O)cn12`, which Potency is on record?
The Potency was inconclusive [activator, partial curve, poor fit].

For `O=C(NCc1ccco1)c1ccc2c(c1)OCCO2`, which Potency is on record?
The Potency was inconclusive [activator, single point].

Which Potency does the source give for `CC(C)NC(=S)NC(=O)c1ccc(-c2ccccc2)cc1` here?
The Potency was inconclusive [activator, single point].

For `Nc1c(Br)cc2oc(-c3ccccc3)nc2c1Br`, which Potency is on record?
The Potency was inconclusive [activator, partial curve, poor fit].

Which Potency does the source give for `Cc1nc(C)c(-c2csc(Nc3ccc(C(=O)O)c(O)c3)n2)s1` here?
The Potency was inconclusive [activator, single point].

Which Potency does the source give for `O=c1c2c3nc4ccccc4nc3n(-c3ccc4c(c3)OCCO4)c2ncn1CC1CCCO1` (centres undefined) here?
The Potency was inconclusive [activator, partial curve, poor fit].

For `O=C(NCCc1ccccc1)c1cnc(Cl)c(Cl)c1`, which Potency is on record?
Its Potency is inconclusive [activator, partial curve, poor fit].

With `CC1Cc2nc(SCC(=O)NCc3ccco3)n(Cc3ccccc3)c(=O)c2S1` (centres undefined) as the compound, how does the Potency read?
The Potency was inconclusive [activator, single point].
